The whole screen tested about 220,000 compounds, of which about 5,700 (2.6%) were called active. The shares of active, inactive and inconclusive entries below differ from those in the screen. The call rests on the fitted dose curve; in most records, active means well fitted inhibition curve with a large enough effect; inconclusive means small, poorly fitted or top-dose-only effect; inactive means no such curve, though single readings can be large or run the other way. Potencies of inconclusive entries are doubtful fits and often do not repeat.
Each molecule was assayed against Lysine-specific demethylase 5B (Homo sapiens) (UniProt Q9UGL1) (assay: Primary screen for KDM5B Histone Demethylases FDH-coupled qHTS). Conditions: FDH-coupled NADH fluorescence (FDH is formaldehyde dehydrogenase); activity change, negative = inhibition: at 57.7 µM (top of the series) unless noted.
Chain of UniProt Q9UGL1 (Q9UGL1 whole entry, looked up): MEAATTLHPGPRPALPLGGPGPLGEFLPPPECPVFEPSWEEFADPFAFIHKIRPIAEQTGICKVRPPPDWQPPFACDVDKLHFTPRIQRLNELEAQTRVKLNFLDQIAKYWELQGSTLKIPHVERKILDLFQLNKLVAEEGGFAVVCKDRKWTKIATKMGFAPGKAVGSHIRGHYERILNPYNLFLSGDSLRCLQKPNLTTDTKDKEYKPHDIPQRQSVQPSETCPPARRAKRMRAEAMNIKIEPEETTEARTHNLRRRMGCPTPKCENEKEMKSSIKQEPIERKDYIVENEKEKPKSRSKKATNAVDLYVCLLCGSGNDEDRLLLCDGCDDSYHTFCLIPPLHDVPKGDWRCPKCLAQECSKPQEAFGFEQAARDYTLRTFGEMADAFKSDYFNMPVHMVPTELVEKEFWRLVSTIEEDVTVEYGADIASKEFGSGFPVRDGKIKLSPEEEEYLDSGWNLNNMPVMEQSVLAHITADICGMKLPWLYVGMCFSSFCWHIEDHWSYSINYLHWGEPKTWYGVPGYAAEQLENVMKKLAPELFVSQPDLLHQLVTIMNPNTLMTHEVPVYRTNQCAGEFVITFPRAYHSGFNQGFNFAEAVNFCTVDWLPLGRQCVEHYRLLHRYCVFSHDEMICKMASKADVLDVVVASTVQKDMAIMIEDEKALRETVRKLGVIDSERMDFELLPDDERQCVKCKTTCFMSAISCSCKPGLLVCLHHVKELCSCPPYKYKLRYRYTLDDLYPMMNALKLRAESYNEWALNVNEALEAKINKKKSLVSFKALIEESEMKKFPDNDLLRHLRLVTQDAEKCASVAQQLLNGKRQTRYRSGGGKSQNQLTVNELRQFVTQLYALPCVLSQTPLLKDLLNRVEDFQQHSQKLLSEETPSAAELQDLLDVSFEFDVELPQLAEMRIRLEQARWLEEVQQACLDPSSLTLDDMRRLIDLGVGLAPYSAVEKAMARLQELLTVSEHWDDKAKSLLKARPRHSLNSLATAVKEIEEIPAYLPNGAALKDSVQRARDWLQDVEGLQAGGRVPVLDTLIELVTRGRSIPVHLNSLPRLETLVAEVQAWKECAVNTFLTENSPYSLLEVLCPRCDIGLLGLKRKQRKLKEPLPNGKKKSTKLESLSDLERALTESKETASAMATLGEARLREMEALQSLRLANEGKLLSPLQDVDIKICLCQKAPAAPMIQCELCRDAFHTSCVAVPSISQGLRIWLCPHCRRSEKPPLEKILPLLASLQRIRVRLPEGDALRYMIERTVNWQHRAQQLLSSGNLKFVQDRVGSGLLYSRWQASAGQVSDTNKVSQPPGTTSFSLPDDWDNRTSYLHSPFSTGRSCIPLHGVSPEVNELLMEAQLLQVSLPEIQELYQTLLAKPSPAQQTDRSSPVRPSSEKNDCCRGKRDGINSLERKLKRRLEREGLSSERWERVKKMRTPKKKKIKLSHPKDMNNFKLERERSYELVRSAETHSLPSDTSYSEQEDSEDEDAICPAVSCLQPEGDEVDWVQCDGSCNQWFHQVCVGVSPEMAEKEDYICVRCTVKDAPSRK
Outline: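 Compound dilutions met 200 nM (final) KDM5BΔAP for 10 min at room temperature before substrate addition. The substrate mix held 12.5 µM H3K4me3 with cofactors 25 µM α-ketoglutarate and 50 µM Fe²⁺. NADH signal gain over 30 min defined activity.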
In the case of `Cc1ccc(C(=O)NCc2coc(-c3cccs3)n2)c(C)c1`, the Potency is reported as inconclusive: 39.8 µM [inhibitor, single point].
For `O=C(NCc1nnc2ccc(-c3ccccc3)nn12)c1ccco1`, the Potency was active: 28.2 µM.
With `NC(=O)CO[C@@H]1CO[C@H]2[C@@H]1OC[C@@H]2NC(=O)c1ccc(C(F)(F)F)cc1` the Potency was “inactive”.
`Cc1ccc(NC(=O)Cn2c(-n3nc(C)cc3C)nc(-c3ccccc3)cc2=O)cc1` was tested, and the Potency was inconclusive: 31.6 µM [inhibitor, single point].
`O=C(NC1(C(F)(F)F)N=C(c2ccccc2)N(C2CCCCC2)C1=O)c1ccccc1F` (configuration not stated) was tested, and the Potency was inconclusive: 5.01 µM [inhibitor, partial curve, poor fit].
In the case of `Cc1cc(C(=O)CN2CCN(CC(=O)Nc3ccc(F)cc3)CC2)c(C)n1CCc1cccs1`, the Potency is reported as inconclusive: 10 µM [inhibitor, partial curve, poor fit].
With `COc1ccc(NS(=O)(=O)c2cc3c4c(c2)CC(=O)N4CCC3)cc1Cl` the activity change, negative = inhibition was inconclusive: -36.1% [inhibitor].
With `O=c1c2nc(NCCOc3ccccc3)ccc2ncn1Cc1ccccc1` the Potency was inconclusive: 6.31 µM [inhibitor, partial curve, poor fit].
`CN1c2cc(C(=O)NCc3ccc(Cl)cc3)ccc2C(=O)N2CCCCC21` (configuration not stated) was tested, and the Potency was inconclusive: 28.2 µM [inhibitor, partial curve, poor fit].
For `CCOc1ccc(C(C)=O)cc1COC(=O)c1ccc(C(N)=O)cc1`, the Potency was “inactive”.
For `Cc1cc(C)cc(NC(=O)Nc2c[nH]c(=O)[nH]c2=O)c1`, the Potency was inconclusive: 35.5 µM [inhibitor, single point].
`CCOC(=O)C1=C(CS(=O)(=O)c2ccc(F)c(C)c2)NC(=O)NC1c1ccc(F)c(F)c1` (configuration not stated) was tested, and the Potency was inconclusive: 0.708 µM [inhibitor, full curve, poor fit].
In the case of `Cc1nc2ccc(Cl)cc2cc1C(=O)NCC(=O)N1CCCCC1`, the Potency is reported as “inactive”.
`CC(=O)c1ccc(OC(=O)c2ccccc2C)cc1` was tested, and the Potency was “inactive”.
`Cc1cc(C)nc(N2C[C@H]3OC(=O)N(CCc4cccc(Cl)c4)[C@H]3C2)n1` was tested, and the Potency was inconclusive: 25.1 µM [inhibitor, single point].
For `Cc1noc2c(-c3cccnc3N(C)C)cc(-c3ccccc3)nc12`, the Potency was active: 31.6 µM.
In the case of `Cc1c(C(=O)Nc2ccccc2Cl)oc2ccc(S(=O)(=O)N3CCCCCC3)cc12`, the Potency is reported as inconclusive: 39.8 µM [inhibitor, single point].
In the case of `c1ccc(-c2ccnc(NCCOc3cccc4cccnc34)n2)nc1`, the Potency is reported as active: 20 µM.
In the case of `COc1ccc(-c2ccc3c(n2)CN(Cc2ccc(F)cc2)C(=O)CO3)cc1`, the Potency is reported as active: 22.4 µM.
With `Nc1ncccc1CN1CCCC12CCN(c1ccc(C(F)(F)F)cn1)CC2` the Potency was inconclusive: 22.4 µM [inhibitor, single point].
In the case of `FC(F)(F)c1cc(-c2cccs2)nc(S)n1`, the Potency is reported as “inactive”.
`CN(C)C(=O)c1cccnc1N1CC2CC(C1)[C@H]1CCCC(=O)N1C2` (some centres not stated) was tested, and the Potency was inconclusive: 25.1 µM [inhibitor, single point].
With `Cc1cccc(-n2c3c(cc(C#N)c2=O)C(=O)CC(c2ccccc2)C3)c1` (configuration not stated) the Potency was inconclusive: 39.8 µM [inhibitor, single point].
For `CCC(C)c1ccccc1NC(=O)Cn1nc(C(=O)O)c2ccccc2c1=O` (configuration not stated), the Potency was “inactive”.
`Cc1ccc(NC(=O)N2CCc3c([nH]c4ccccc34)C2c2ccccc2F)c(Cl)c1` (configuration not stated) was tested, and the Potency was inconclusive: 35.5 µM [inhibitor, single point].
For `O[C@@H]1C[C@@H](c2nc(-c3cnccn3)no2)N(Cc2cccs2)C1`, the Potency was inconclusive: 28.2 µM [inhibitor, partial curve, poor fit].
`O=C(CCc1ncc(-c2c(F)cccc2F)o1)NCC(=O)Nc1ccccc1Br` was tested, and the Potency was “inactive”.
`Cc1ccc(S(=O)(=O)N2CCC(n3cnnc3C)CC2)c(C)c1` was tested, and the Potency was “inactive”.
With `CCc1ccc(-c2nc3cc(NC(=O)c4cccc(OC)c4)ccc3o2)cc1` the Potency was inconclusive: 17.8 µM [inhibitor, partial curve, poor fit].
For `CCOc1ccc(-c2cc3c(=O)n(CCNC(=O)Cc4ccccc4C)ccn3n2)cc1`, the Potency was active: 22.4 µM.
`CCOC(=O)N(C)[C@H]1C[C@H]2c3[nH]c4c(-c5ccc6c(c5)OCO6)cccc4c3CCN2C(=O)[C@H]1[C@H](C)O` was tested, and the Potency was inconclusive: 10 µM [inhibitor, partial curve, poor fit].
In the case of `O/N=C(\c1ccc(Cl)cc1)c1ccco1`, the Potency is reported as “inactive”.
In the case of `Cc1c(O)ccc2c(CN(C)CCOc3ccccc3)cc(=O)oc12`, the Potency is reported as inconclusive: 39.8 µM [inhibitor, single point].
In the case of `Cc1csc(NC(=O)CCc2ncc(-c3c(F)cccc3F)o2)n1`, the Potency is reported as “inactive”.
With `Cc1ccc(C(=O)OCC(=O)Nc2ccccc2N2CCCC2=O)c(O)c1` the Potency was “inactive”.
For `COc1ccc(C(=O)Nc2ccc3oc(-c4ccccc4C)nc3c2)cc1OC`, the Potency was inconclusive: 22.4 µM [inhibitor, single point].
In the case of `COc1cc(C)ccc1OCc1cc(C(=O)NCc2n[nH]c3c2CCC3)no1`, the Potency is reported as “inactive”.
`CC1(C)CC(=O)C2=C(C1)C(c1ccco1)Nc1ccc3ccccc3c12` (configuration not stated) was tested, and the Potency was inconclusive: 6.31 µM [inhibitor, full curve, poor fit].
In the case of `O=Cc1cc(Cl)cc(Cl)c1O`, the Potency is reported as “inactive”.
`CN(C)c1ccc(-c2nc3ccccn3c2Nc2ccc3c(c2)OCCO3)cc1` was tested, and the Potency was inconclusive: 4.47 µM [inhibitor, full curve, poor fit].
`Cc1noc([C@@H]2CN(C(=O)c3cccc4[nH]ccc34)C[C@H]2CO)n1` was tested, and the Potency was active: 28.2 µM.
For `COc1ccc(OC)c(NC(=O)c2cc3c(=O)n4cccc(C)c4nc3n2C)c1`, the Potency was inconclusive: 50.1 µM [inhibitor, single point].
With `COc1cccc(NS(=O)(=O)c2ccc3[nH]cc(C(=O)N(C)Cc4ccco4)c(=O)c3c2)c1` the Potency was inconclusive: 1.26 µM [inhibitor, partial curve, poor fit].
`CCc1ccccc1N1CC(c2nc3ccccc3n2CCC2CCCCC2)CC1=O` (configuration not stated) was tested, and the Potency was inconclusive: 11.2 µM [inhibitor, partial curve, poor fit].
In the case of `Cc1nnc(N2CCC(C(=O)NCc3cccc(Cl)c3)CC2)c2nn(-c3ccccc3)c(C)c12`, the Potency is reported as inconclusive: 17.8 µM [inhibitor, partial curve, poor fit].
With `O=[N+]([O-])/C=C\c1ccc(N2CCOCC2)cc1` the Potency was inconclusive: 17.8 µM [inhibitor, partial curve, poor fit].
For `Cn1c(=O)c2c(c3ccccc31)OC(=O)CC2c1ccccc1` (configuration not stated), the Potency was inconclusive: 12.6 µM [inhibitor, partial curve, poor fit].
In the case of `CC1(C)CC(CCN2CCC(Cc3ccccc3)CC2)(c2cccc(C(F)(F)F)c2)CCO1` (configuration not stated), the Potency is reported as inconclusive: 39.8 µM [inhibitor, single point].
For `CN(Cc1cnccn1)C(=O)c1csc2nc(-c3cccc(C(F)(F)F)c3)cn12`, the Potency was inconclusive: 12.6 µM [inhibitor, partial curve].
`COC1CCN(C(=O)Cc2c[nH]c3ncc(-c4cnn(C)c4)cc23)CC1` was tested, and the Potency was inconclusive: 35.5 µM [inhibitor, partial curve, poor fit].
In the case of `COC1C(=O)N(c2cccc(F)c2)C12CCN(C(=O)c1ccncc1)CC2` (configuration not stated), the Potency is reported as “inactive”.
In the case of `Cn1ccnc1CN1CCCC12CCN(c1ccc(C(F)(F)F)cn1)CC2`, the Potency is reported as inconclusive: 10 µM [inhibitor, partial curve, poor fit].
For `COC(=O)Cc1c(C)c2ccc(OCc3nn[nH]n3)c(C)c2oc1=O`, the Potency was inconclusive: 22.4 µM [inhibitor, partial curve, poor fit].
In the case of `Cc1ccc(C(C=O)C=O)cc1`, the Potency is reported as “inactive”.
With `CC(C)CNC(=O)c1cc(-c2ccccc2F)cc2c1OCCN2Cc1cccnc1` the Potency was active: 31.6 µM.
For `COc1ccc(C(=O)Nc2ccc3c(c2)N(C)C(=O)c2ccccc2S3)cc1OC`, the Potency was inconclusive: 35.5 µM [inhibitor, single point].
In the case of `CNC(=O)CCn1ncc2cc(OCc3ccccc3-c3ccccc3Cl)ccc21`, the Potency is reported as inconclusive: 35.5 µM [inhibitor, single point].
In the case of `CNc1c(NS(=O)(=O)c2ccc(C)cc2)c(=O)oc2ccccc12`, the Potency is reported as inconclusive: 39.8 µM [inhibitor, single point].
`CCCc1nnc(NC(=O)CCC(=O)N2CCN(c3nc(C)cc(C)n3)CC2)s1` was tested, and the Potency was inconclusive: 28.2 µM [inhibitor, single point].
With `CC(=O)Nc1ccc(NC(=O)c2nc(S(=O)(=O)Cc3ccc(F)cc3)ncc2Cl)cc1` the Potency was inconclusive: 14.1 µM [inhibitor, partial curve, poor fit].
With `CCc1nc(-c2ccc(OC3CCN(CCc4ccccc4)C3)cc2)no1` (configuration not stated) the Potency was “inactive”.
`CCc1ccc(C2C(C(=O)Nc3ccccc3OC)=C(C)Nc3c(C(=O)Nc4ccc(C)cc4)cnn32)cc1` (configuration not stated) was tested, and the Potency was inconclusive: 25.1 µM [inhibitor, partial curve, poor fit].
With `O=C(NCCNC(=O)c1cc2ccccc2[nH]1)C(=O)N1CCN(Cc2ccccc2)CC1` the Potency was inconclusive: 39.8 µM [inhibitor, single point].
With `COc1nccc(N2CCC(CC(=O)NCCCN3CCCC3=O)CC2)n1` the Potency was “inactive”.
With `C=CCOc1cccc(NC(=O)c2ccccc2C)c1` the Potency was “inactive”.
In the case of `Cc1ccc(C2NC(=S)NC3=C2CCc2ccccc23)cc1` (configuration not stated), the Potency is reported as inconclusive: 14.1 µM [inhibitor, partial curve, poor fit].
With `COc1cccc(OC)c1C(=O)NCCc1sc(-c2cccc(F)c2)nc1C` the Potency was inconclusive: 31.6 µM [inhibitor, partial curve, poor fit].

Source: PubChem BioAssay AID1347165 (National Center for Advancing Translational Sciences (NCATS), 2019)
Further: nearly all actives have a fitted effect of over 70% in size.
Potency means the concentration at half of the fitted maximal effect; tags describe the fitted curve by direction and shape.
Wherever activity change, negative = inhibition is given: 0% is about no effect.
